Results: the supplement of paper PMC9433436
± gives the standard deviation of the averaged measurements. Whole data set: some 4,100 sequences, median “relative kcat/Km (krel) vs genomic leader AAAGAU” near 1.7, cut for the highest 2% near 6.5. This is a selection; strong and weak results do not stand in their true shares.

Target: T1, E. coli RNase P holoenzyme (M1 P RNA + rnpA protein) (UniProt P0A7Y8)
T1 sequence: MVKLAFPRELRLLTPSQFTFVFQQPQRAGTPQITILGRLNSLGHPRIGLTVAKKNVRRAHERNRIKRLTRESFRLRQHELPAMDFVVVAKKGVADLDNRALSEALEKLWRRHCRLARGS
Assay: relative kcat/Km (krel) vs genomic leader AAAGAU (relative (reference leader = 1)); higher = faster RNase P cleavage
Summary of the method: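 Relative kcat/Km (krel) values came from internal competition kinetics on sequencing read ratios, normalised to the genomic leader and averaged over two technical replicates. A precursor tRNA-Met pool with randomized leader positions −6 to −1 was cleaved by E. coli RNase P holoenzyme (P RNA plus C5 protein) under multiple-turnover conditions at 37 °C. The buffer held 50 mM Tris-HCl pH 8, 100 mM NaCl and 17.5 mM MgCl2, and unreacted precursor was gel-purified at ~5–30% conversion, made into cDNA libraries and Illumina-sequenced.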

[1] = fraction of substrate reacted: ~9-10% (9.79% repeat 1, 9.1% repeat 2)
[2] = fraction of substrate reacted: ~13-16% (15.68% repeat 1, 13.17% repeat 2)
[3] = fraction of substrate reacted: ~26-29% (28.66% repeat 1, 26.4% repeat 2)

Sequence | relative kcat/Km [1] | relative kcat/Km [2] | relative kcat/Km [3]
TGAGTT | 1.22 ± 0.22 | 1.26 ± 0.098 | 0.851 ± 0.034
TTCTCG | 2.16 ± 1.3 | 2.86 ± 0.45 | 4.91 ± 1.5
CCCAGT | 1.46 ± 0.43 | 1.08 ± 0.5 | 0.854 ± 0.22
GTACAC | 2.77 ± 1.4 | 3.51 ± 0.54 | 4.87 ± 2.1
CCAGGA |  |  | 0.348 ± 0.1
ATTGTT | 0.98 ± 0.36 | 0.898 ± 0.69 | 1.14 ± 0.62
TGACGG |  |  | 0.732 ± 0.19
TGTTCG | 1.17 ± 0.34 | 0.953 ± 0.14 | 2.21 ± 0.63
TTAGGG | 0.357 ± 0.048 | 1.11 ± 0.86 | 2.15 ± 2.1
CATCCT | 2.74 ± 1.2 | 2.46 ± 0.37 | 3.05 ± 1.3
GACTCC | 3.31 ± 0.62 | 4.26 ± 0.76 | 5.61 ± 2
GCACTG |  |  | 0.928 ± 0.31
AAACTT | 1.24 ± 0.78 | 1.5 ± 0.34 | 1.72 ± 0.4
AGAGCA | 1.6 ± 1.4 | 1.29 ± 0.48 | 1.79 ± 0.37
GACCGA | 3.3 ± 0.89 | 4.27 ± 2.1 | 6.73 ± 2.8
AGGACT |  | 0.804 ± 0.14 | 0.609 ± 0.17
GGCTGG | 0.0825 ± 0.053 |  | 0.197 ± 0.19
ACAACA | 1.44 ± 0.56 | 0.464 ± 0.13 | 1.28 ± 0.044
CTAATG |  |  | 1.01 ± 0.032
AGGAGA | 1.11 ± 0.84 | 1.25 ± 0.32 | 1.37 ± 0.089
TGTTCT | 1.986 ± 0.0021 | 2.58 ± 0.73 | 4.41 ± 1.8
CTATCG | 0.484 ± 0.45 | 0.416 ± 0.1 | 0.968 ± 0.63

Sequence | relative kcat/Km [1] | relative kcat/Km [2] | relative kcat/Km [3]
CATGGA |  |  | 1.18 ± 0.94
TTCGTT | 1.6 ± 0.73 | 2.49 ± 0.11 | 3.56 ± 1.5
AATGAC | 1.6 ± 0.14 | 2.43 ± 0.32 | 3.41 ± 1.5
GACATA | 3.56 ± 1.6 | 4.08 ± 0.23 | 5.57 ± 2.4
TGTAGG |  | 0.426 ± 0.27 | 1.61 ± 0.48
TAGGAT | 0.85 ± 0.42 |  | 1.93 ± 1.8
CCGCAC | 2.75 ± 0.53 | 2.27 ± 0.52 | 3.95 ± 1
TACATC | 3.03 ± 0.57 | 4.44 ± 0.76 | 6.8 ± 2.7
GAATTG |  |  | 0.858 ± 0.51
TAGCGG | 0.559 ± 0.074 | 0.769 ± 0.42 | 0.842 ± 0.027
CAGGCC | 1.58 ± 1.1 | 1.08 ± 0.37 | 0.865 ± 0.12
CAGGAG | 0.78 ± 0.77 |  | 0.626 ± 0.52
TCTCAA | 2.39 ± 1.3 | 2.88 ± 0.5 | 4.05 ± 1.5
AGGCCT | 0.882 ± 0.08 | 1.09 ± 0.059 | 1.22 ± 0.51
ATGAAC | 1.53 ± 0.79 | 2.27 ± 0.36 | 3.69 ± 1.4
AGAGTC | 0.78 ± 0.57 |  | 0.64 ± 0.34
TCCATT | 4.11 ± 1.2 | 4.85 ± 1.2 | 7.33 ± 3.2
CTCCCG |  | 1.39 ± 0.38 | 2.19 ± 0.18
TCTGAG |  |  | 1.3 ± 0.34
GCGTCA | 1.22 ± 0.66 | 1.3 ± 0.41 | 1.41 ± 0.12
CTGATA | 0.887 ± 0.39 | 0.874 ± 0.049 | 1.16 ± 0.54
GCTTGG | 0.631 ± 0.29 |  | 0.657 ± 0.29

Sequence | relative kcat/Km [1] | relative kcat/Km [2] | relative kcat/Km [3]
GTCGTG |  | 0.243 ± 0.15 | 1.26 ± 0.04
ACGAGA | 1.59 ± 0.47 | 2.26 ± 0.7 | 2.67 ± 1.2
AGGCAC | 1.88 ± 0.072 | 0.663 ± 0.19 | 1.55 ± 0.34
TGAATG | 0.537 ± 0.44 | 0.418 ± 0.011 | 1.65 ± 0.14
AATAGC | 1.95 ± 0.28 | 2.22 ± 0.098 | 3.09 ± 1.1
AGACAC | 3.91 ± 1.7 | 3.32 ± 0.35 | 5.36 ± 2.2
TTTCTT | 2.88 ± 0.89 | 3.19 ± 0.66 | 4.13 ± 2
GACCTA | 2.84 ± 0.65 | 2.44 ± 0.3 | 4.1 ± 1.9
GCTTTG |  |  | 1.02 ± 0.31
GCATTT | 1.21 ± 0.41 | 1.62 ± 0.22 | 2.86 ± 1.4
GCAATT |  | 0.851 ± 0.064 | 1.21 ± 0.26
CCCCCA | 2.81 ± 1.5 | 1.96 ± 1.4 | 2.81 ± 0.61
TGCGGC | 1.13 ± 0.11 | 0.994 ± 0.7 | 1.3 ± 1.3
CTGATT | 1.39 ± 1.1 | 0.779 ± 0.094 | 1.64 ± 0.079
AGAAGC | 2.58 ± 0.84 | 2.32 ± 0.46 | 2.38 ± 0.49
AATATG |  |  | 1.5 ± 0.39
GCGTAT | 1.96 ± 0.3 | 2.88 ± 0.95 | 3.37 ± 1.6
CGTCGC | 2.49 ± 0.74 | 3.77 ± 0.95 | 4.81 ± 1.1
ACAAGC | 2.64 ± 1 | 1.72 ± 0.14 | 2.4 ± 0.85
TAATGA | 3.46 ± 0.8 | 3.74 ± 0.99 | 5.9 ± 2.9
GGCCGT |  |  | 1.79 ± 1.4
AATGCA |  | 0.565 ± 0.21 | 0.83 ± 0.33

Sequence | relative kcat/Km [1] | relative kcat/Km [2] | relative kcat/Km [3]
TAATTT | 2.75 ± 0.56 | 3.44 ± 0.72 | 4.51 ± 2.3
GATTCA | 1.24 ± 0.39 | 1.75 ± 0.35 | 2.73 ± 1
TCACGA | 1.94 ± 0.45 | 2.34 ± 0.65 | 3.59 ± 1.2
TTGGAT | 0.034 ± 0.0085 |  | 
TTTAGG |  | 0.392 ± 0.28 | 1.54 ± 0.42
GCGGTC |  |  | 0.95 ± 0.64
CACCCA | 1.51 ± 0.24 | 1.47 ± 0.73 | 2.44 ± 1
ACCTAG | 2.77 ± 2.8 | 2.93 ± 0.56 | 4.27 ± 0.99
ATTACT | 2.16 ± 1.3 | 2.22 ± 0.19 | 3.03 ± 0.91
AACATT | 2.96 ± 1.9 | 3.2 ± 0.1 | 4.74 ± 1.8
CGCCCG | 0.881 ± 0.6 | 0.514 ± 0.2 | 1.58 ± 0.21
CTATGC | 2.9 ± 0.096 | 3.48 ± 0.63 | 5.18 ± 2.4
ATCGCT | 2.5 ± 0.7 | 2.34 ± 0.31 | 3.27 ± 0.6
ATTCAA | 2.88 ± 2.4 | 3.06 ± 0.28 | 3.93 ± 1.2
TCATTG |  | 0.158 ± 0.11 | 1.45 ± 0.15
AAGAAG |  |  | 1.01 ± 0.43
GCGCGC | 1.18 ± 0.45 | 0.806 ± 0.69 | 1.61 ± 0.44
TGGTGA |  | 0.491 ± 0.45 | 0.727 ± 0.34
AGGGGG |  |  | 1.11 ± 1
TCGTAT | 4.13 ± 0.92 | 4.78 ± 0.97 | 
AACCTC | 3.13 ± 1.3 | 2.12 ± 0.18 | 2.98 ± 0.97
CTTGTT | 1.35 ± 0.26 | 1.04 ± 0.14 | 1.23 ± 0.9

Sequence | relative kcat/Km [1] | relative kcat/Km [2] | relative kcat/Km [3]
TGCCTT | 1.96 ± 0.64 | 2.66 ± 0.59 | 3.59 ± 1.3
CAATGG |  | 0.462 ± 0.11 | 0.702 ± 0.35
TCGCGG | 1.27 ± 0.89 |  | 0.735 ± 0.24
ATCTCT | 3.47 ± 1.2 | 4.36 ± 0.18 | 6.18 ± 2.7
TCCGGT |  |  | 2.26 ± 0.87
TCCCAT | 4.48 ± 2.4 | 5.74 ± 1 | 
TTCATG | 2 ± 2 | 2.08 ± 0.48 | 4.3 ± 1.5
GGCATC | 1.73 ± 0.36 | 2.09 ± 0.48 | 2.42 ± 0.71
GAGGTA | 0.0777 ± 0.05 |  | 
ATGATG |  |  | 0.888 ± 0.43
TGACGA | 2.18 ± 0.17 | 3.63 ± 0.68 | 4.71 ± 2
TGCAAC | 1.87 ± 0.58 | 1.45 ± 0.22 | 2.22 ± 0.84
CGATGA | 2.79 ± 1.8 | 3.53 ± 0.96 | 4.87 ± 1.1
GTTCCG |  | 0.359 ± 0.011 | 1.45 ± 0.11
TTATAC | 4.34 ± 1.3 | 5.2 ± 0.6 | 
ATTCTA | 2.57 ± 2.1 | 2.17 ± 0.23 | 2.44 ± 0.73
TGGCCA | 1.16 ± 0.33 | 0.745 ± 0.48 | 0.607 ± 0.14
AGATCT | 2.62 ± 0.94 | 3.06 ± 0.29 | 3.7 ± 1.1
AGCGCG |  |  | 0.992 ± 0.79
TTACCG |  |  | 0.935 ± 0.42
